# PubChem BioAssay AID1508642 (National Center for Advancing Translational Sciences (NCATS), 2021)
# Screen size: about 43,000 compounds; about 200 (0.47%) were called active. Not shown: some 12% with an inconclusive outcome. The call rests on the fitted dose curve; in most records, active means well fitted cell-killing curve with a large enough effect; inconclusive means small, poorly fitted or top-dose-only effect, or effect the other way; inactive means flat fitted curve, though single readings scatter. The list shows a part of the results.
# Assay: Cell viability qHTS assay in S16 Pmp22-F2sN cells; further: nearly all actives have a fitted effect of over 65% in size
# Conditions: S16 Pmp22-F2sN Schwann cells viability, CellTiter-Glo, 24 h; series mostly up to 57.5 µM; activity change, negative = cytotoxicity: at the top concentration
# Method in brief: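 Used to flag compounds lowering reporter output through toxicity, this quantitative HTS measures ATP-based CellTiter-Glo luminescence in S16 Pmp22-F2sN Schwann cells after 24 h compound exposure at 37C.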
# On the % scale 0 is the no-effect control and ±100 the full control effect.
row,Structure (SMILES),"activity change, negative = cytotoxicity"
1,Clc1ccc(-c2ccc(CNCCSc3nnnn3-c3ccccc3)o2)cc1,inactive: -1.56%
2,COc1ccc(C)cc1NC(=O)CSc1nc(=O)n(Cc2cccnc2)c2c1CCC2,inactive: 9.25%
3,Clc1cccc(-n2ncc3c(NCCC4=CCCCC4)ncnc32)c1,inactive: 0.831%
4,COc1ccc(OC)c(C(=O)CN2C(=O)N(c3cc(C)cc(C)c3)S(=O)(=O)c3ccccc32)c1,inactive: -13.2%
5,CCN1CCN(c2oc(-c3ccc(COc4ccc(OC)cc4)o3)nc2C#N)CC1,inactive: 13%
6,CC(C)(C)OC(=O)N1CCC(c2c(C(=O)NCCN3CCOCC3)cnn2-c2cccc(F)c2)CC1,inactive: 1.2%
7,CC(=O)c1ccc(N2C(=O)N(Cc3ccc(F)cc3)c3ccccc3S2(=O)=O)cc1,inactive: 25.9%
8,CCN(CC)S(=O)(=O)c1nnc(NC(=O)COc2ccccc2)s1,inactive: -5.45%
9,Cc1ccc(S(=O)(=O)c2cn(C)c3cc(N4CCOCC4)c(F)cc3c2=O)c(C)c1,inactive: -16.5%
10,COc1ccc(N2CCN(c3ncnc4c3nc3n4CCCCC3)CC2)cc1,inactive: -17.8%
11,Oc1c(C(c2ccc(F)cc2)N2CCCC2)sc2nc(-c3ccco3)nn12 (configuration not stated),inactive: 12.2%
12,Cc1ccc(CCNC(=O)C2COc3ccccc3C2)cc1 (configuration not stated),inactive: -12.6%
13,Cc1cc(C)n(-c2nc3cc(Cl)ccc3nc2N2CCN(c3cccc(C)c3C)CC2)n1,inactive: 3.56%
14,COc1ccccc1CNS(=O)(=O)c1c(C(=O)N2CCC(C)CC2)c(C)n(C)c1C,inactive: 2.52%
15,Cc1ccc(CCNC(=O)Cn2ncc3c([nH]c4ccccc43)c2=O)cc1,inactive: 9.6%
16,Cc1ccc2c(c1)-c1onc(C(=O)N3CCN(c4cc(C)ccc4C)CC3)c1CO2,inactive: -4.1%
17,CC(=O)c1ccc(NC(=O)NCCc2c[nH]c3ccccc23)cc1,inactive: 9.08%
18,CCCCCn1c(=O)[nH]c2cc(C(=O)Nc3ccc(F)cc3)ccc2c1=O,inactive: -0.794%
19,CCOC(=O)C1CCN(S(=O)(=O)c2cc(-c3cc(C)no3)ccc2C)CC1,inactive: 10.6%
20,Cc1cccc(-c2nc3scc(CCNC(=O)c4ccccc4Cl)n3n2)c1,inactive: -14.4%
21,Cc1cccc(NC(=O)CSc2nnc(CNC(=O)c3c(F)cccc3Cl)o2)c1C,inactive: 0.131%
22,CC(C)c1nn2c(=O)cc(COC(=O)c3ccc(NC(=O)CCc4ccccc4)cc3)nc2s1,inactive: -1.41%
23,CCC1CN(C(=O)N2CCC(C(=O)NCc3cccs3)CC2)c2cc(C)ccc2O1 (configuration not stated),inactive: -16.8%
24,Cc1ccc2nc(N3CCN(c4cccc(C)c4C)CC3)c3nnnn3c2c1,inactive: 5.83%
25,COc1ccc(NC(=O)Cc2csc(C)n2)cc1,inactive: 1.12%
26,CC(C)(C)C(=O)Nc1c(C(=O)N2CCN(c3ccc(F)cc3)CC2)oc2ccccc12,inactive: -4.87%
27,CCc1cccc(NC(=O)CSc2ncc3c(n2)-c2ccccc2N(Cc2ccccc2C)S3(=O)=O)c1,inactive: 1.52%
